Experimental findings from ChEMBL document CHEMBL5606458, “ASAP - ZIKV NS2B-NS3 protease fluorescence single point” (2024) are described below.

The campaign covered roughly 2,700 compounds. About 160 (5.9%) showed an effect of 50% or more. Some of the results follow.

The target in the test is Nonstructural protein 3 (Zika virus) (UniProt A0A024AXB9).
Where [1] appears, read: PRVABC59, Concentration 50.0 uM, Number of replicates 1.0.
Setting [2] is: PRVABC59, Concentration 15.0 uM, Number of replicates 1.0.
[3] abbreviates: PRVABC59, Concentration 10.0 uM, Number of replicates 1.0.

By inhibition is commonly meant the change of the read-out against control, counted positive when it falls.

Sequence of UniProt A0A024AXB9 (A0A024AXB9 as listed by the source): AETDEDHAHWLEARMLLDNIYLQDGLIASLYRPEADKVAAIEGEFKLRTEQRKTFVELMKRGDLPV

For the compound `O=Cc1ccc(N2CCC(C(=O)NCCc3c(F)cccc3Cl)CC2)cc1`, the inhibition under setting [1] was 16.4%.
For `COc1cc(CCNC(=O)c2cc(Cl)ccc2NS(=O)(=O)c2ccc(Oc3ccccc3Cl)cc2)cc(OC)c1O`, under setting [2], the inhibition turned out to be 29.1%.
For the compound `C[C@H](NC(=O)c1cc(Cl)ccc1NS(=O)(=O)c1ccc(Oc2ccccc2Cl)cc1)c1ccc2c(c1)OCCCO2`, the inhibition under setting [2] came out at 29.3%.
On to `Cn1cc(NC(=O)c2ccccc2C(F)(F)F)c(-c2cnn(C)n2)n1`, for which the inhibition is 0.532% (PRVABC59, Concentration 49.5 uM, Number of replicates 2.0, Standard deviation 3.8222474524095547 %); -0.82% (PRVABC59, Concentration 99.01 uM, Number of replicates 2.0, Standard deviation 1.4785352165847228 %); -2.64% (PRVABC59, Concentration 198.0 uM, Number of replicates 2.0, Standard deviation 0.9946836637082618 %).
As for `Cc1cc(Cl)c2cccc(NC(=O)CCN)c2n1`, the inhibition reads like this: (PRVABC59, Concentration 49.95 uM, Number of replicates 2.0, Standard deviation 0.2024559271573544 %) 95.1%; (PRVABC59, Concentration 99.9 uM, Number of replicates 2.0, Standard deviation 0.15816464699422608 %) 91.2%.
With `O=C(O)c1cccc(NC(=O)c2cccnc2)c1`, the inhibition is, setting by setting: (PRVABC59, Concentration 49.5 uM, Number of replicates 2.0, Standard deviation 0.6620888840867353 %) -0.418%; (PRVABC59, Concentration 99.01 uM, Number of replicates 2.0, Standard deviation 1.469463697498632 %) 2.14%; (PRVABC59, Concentration 198.0 uM, Number of replicates 2.0, Standard deviation 1.8949438882362333 %) 5.49%.
As to `Cc1cc(C)nc(CCNC(=O)c2cc(Cl)ccc2NS(=O)(=O)c2ccc(Oc3ccccc3Cl)cc2)n1`, under setting [2], the inhibition was found to be 7.5%.
Regarding `COc1cc2nc(Cl)nc(NC(=O)C3CCN(c4ccc(C=O)cc4)CC3)c2cc1OC`, the inhibition under setting [1] came out at 24.4%.
The same measure, in the same setting: next, `Cc1ccc(CN(C(=O)C2CCN(c3ccc(C=O)cc3)CC2)C2CC2)s1`: 27.6%; `CCCCCCCCCCNC(=O)C1CCN(c2ccc(C=O)cc2)CC1`: 22.7%.
As to `NC(=O)c1sccc1NS(=O)(=O)c1ccc(Oc2ccccc2)cc1`, the inhibition (PRVABC59, Concentration 49.5 uM, Number of replicates 2.0, Standard deviation 0.4763028837207658 %) came to 3.73%; the inhibition (PRVABC59, Concentration 99.01 uM, Number of replicates 2.0, Standard deviation 0.39278030543933307 %) came out at 8.2%; the inhibition (PRVABC59, Concentration 198.0 uM, Number of replicates 2.0, Standard deviation 0.5485388731457692 %) was determined as 15.3%.
On to `O=C(c1cc(Cl)ccc1NS(=O)(=O)c1ccc(Oc2ccccc2Cl)cc1)N1CCN(CCOCCO)CC1`, for which the inhibition under setting [2] was -0.703%.
Same read-out and setting: the figure for `Cc1noc([C@@H]2CCCCN2C(=O)c2cc(Cl)ccc2NS(=O)(=O)c2ccc(Oc3ccccc3Cl)cc2)n1` is 20.8%.
As for `O=Cc1ccc(N2CCC(C(=O)NCCSc3ccc(Cl)cc3)CC2)cc1`, the inhibition under setting [1] was -3.35%.
In the case of `O=Cc1ccc(N2CCC(C(=O)NCc3ccc(I)cc3)CC2)cc1`, the inhibition under setting [3] was 19.4%.
Take `O=C(Nc1cccc(O)c1)c1cccc(OCc2c(Cl)cccc2Cl)c1`: the inhibition reads like this: (PRVABC59, Concentration 49.5 uM, Number of replicates 2.0, Standard deviation 2.5164150167444057 %) 9.1%; (PRVABC59, Concentration 99.01 uM, Number of replicates 2.0, Standard deviation 0.35948766686360767 %) 9.02%; (PRVABC59, Concentration 198.0 uM, Number of replicates 2.0, Standard deviation 1.1241130951499425 %) 12.5%.
For `C[C@H](NC(=O)C1CCN(c2ccc(C=O)cc2)CC1)c1cc(F)ccc1F`, the inhibition under setting [3] amounted to 20.5%.
In the case of `O=C(CNC(=O)c1cc(Cl)ccc1NS(=O)(=O)c1ccc(Oc2ccccc2Cl)cc1)c1ccc(O)cc1`, the inhibition under setting [2] stood at 52.2%.
`C#CCN(C(=O)c1cc(Cl)ccc1NS(=O)(=O)c1ccc(Oc2ccccc2Cl)cc1)[C@@H](C)Cc1ccccc1`: the inhibition under setting [2] turned out to be 25.7%.
As to `COc1cc(COc2cc(C)nc3ncnn23)nc(N2CCNCC2)n1`, the inhibition worked out at 1.51% (PRVABC59, Concentration 49.5 uM, Number of replicates 2.0, Standard deviation 2.68247440066745 %); 0.374% (PRVABC59, Concentration 99.01 uM, Number of replicates 2.0, Standard deviation 1.6078501771858478 %); 1.09% (PRVABC59, Concentration 198.0 uM, Number of replicates 2.0, Standard deviation 1.0644090707345926 %).
For the compound `Cc1cc(CO)c2cccc(NC(=O)CCC3CCNCC3)c2n1`, the inhibition by setting is: (PRVABC59, Concentration 49.95 uM, Number of replicates 2.0, Standard deviation 0.05519955890732387 %) 98.6%; (PRVABC59, Concentration 99.9 uM, Number of replicates 2.0, Standard deviation 0.045159842417240824 %) 96.7%.
For `O=C(c1cc(Cl)ccc1NS(=O)(=O)c1ccc(Oc2ccccc2Cl)cc1)N1CCN(Cc2cccc3ccccc23)CC1`, the inhibition under setting [2] came to 10.7%.
On to `CN(C)CCCN(CCCN(C)C)C(=O)C1CCN(c2ccc(C=O)cc2)CC1`, for which the inhibition under setting [1] stood at 23.2%.
The same measure, in the same setting: the figure for `O=Cc1ccc(N2CCC(C(=O)N3CCC(Oc4cnccn4)CC3)CC2)cc1` is 27.3%.
Regarding `O=C(Nc1ccc(Cl)nc1Cl)c1cc(Cl)ccc1NS(=O)(=O)c1ccc(Oc2ccccc2Cl)cc1`, the inhibition under setting [2] amounted to 23.5%.
Consider `NCCOc1ccc2c(c1)B(O)OC2`, for which the inhibition was -3.39% (PRVABC59, Concentration 49.5 uM, Number of replicates 2.0, Standard deviation 5.911654033689354 %); -2.53% (PRVABC59, Concentration 99.01 uM, Number of replicates 2.0, Standard deviation 4.227955018150725 %); -2.7% (PRVABC59, Concentration 198.0 uM, Number of replicates 2.0, Standard deviation 3.769614855213321 %); -3.15% (PRVABC59, Concentration 500.0 uM, Number of replicates 2.0, Standard deviation 0.5748218164645568 %).
For the compound `O=Cc1ccc(N2CCC(C(=O)NCC(=O)c3ccccc3F)CC2)cc1`, the inhibition under setting [1] was found to be 13.6%.
As for `Cc1cc(CO)c2cccc(NC(=O)C[C@H]3CCCN3)c2n1`, the inhibition reads like this: (PRVABC59, Concentration 49.95 uM, Number of replicates 2.0, Standard deviation 2.649580260544395 %) 3.54%; (PRVABC59, Concentration 99.9 uM, Number of replicates 2.0, Standard deviation 2.639543831508496 %) 13.9%.
On to `O=Cc1ccc(N2CCC(C(=O)Nc3cc(C(F)(F)F)ccc3N3CCCC3)CC2)cc1`, for which the inhibition under setting [1] was -4.32%.
Consider `CN(C)Cc1cc(C(=O)Nc2cc(Cl)cc(C(=O)NC(C)(C)CO)c2)ccn1`, for which the inhibition by setting is: (PRVABC59, Concentration 49.5 uM, Number of replicates 2.0, Standard deviation 0.7343048168802037 %) 3.54%; (PRVABC59, Concentration 99.01 uM, Number of replicates 2.0, Standard deviation 0.19075528766115404 %) 7.41%; (PRVABC59, Concentration 198.0 uM, Number of replicates 2.0, Standard deviation 0.5886748112205115 %) 14.7%.
